Data published in PubChem BioAssay AID624417 (National Center for Advancing Translational Sciences (NCATS), 2012).
Among all 410,000 compounds or so, about 6,400 (1.6%) were called active. The shares of active, inactive and inconclusive entries below differ from those in the screen. Calls follow the shape of the dose curve; as a rule, active = well fitted inhibition curve with a large enough effect; inconclusive = small, poorly fitted or top-dose-only effect; inactive = no such curve, though single readings can be large or run the other way. Potencies of inconclusive entries are left out as doubtful fits.

Biological target: Glucagon-like peptide 1 receptor (Homo sapiens) (UniProt P43220)
Experiment: qHTS of GLP-1 Receptor Inverse Agonists (Inhibition Mode); also: nearly all actives have a fitted effect of over 55% in size
Conditions: HEK293 GLP-1R CRE-luciferase, luminescence, 24 h, GLP-1R form is constitutively active; series mostly up to 38.3 µM
Outline: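 HEK293 cells stably co-expressing a cAMP-responsive luciferase reporter and constitutively active GLP-1R were seeded, incubated 12 h, then exposed to compounds for 24 h at 37 C. Luminescence was read 12 min after detection reagent; inverse agonists lower signal.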
Potency is read from the fitted curve at half-maximal effect; tags tell the direction and shape of the fitted curve.

Sequence of UniProt P43220 (P43220 whole entry, looked up): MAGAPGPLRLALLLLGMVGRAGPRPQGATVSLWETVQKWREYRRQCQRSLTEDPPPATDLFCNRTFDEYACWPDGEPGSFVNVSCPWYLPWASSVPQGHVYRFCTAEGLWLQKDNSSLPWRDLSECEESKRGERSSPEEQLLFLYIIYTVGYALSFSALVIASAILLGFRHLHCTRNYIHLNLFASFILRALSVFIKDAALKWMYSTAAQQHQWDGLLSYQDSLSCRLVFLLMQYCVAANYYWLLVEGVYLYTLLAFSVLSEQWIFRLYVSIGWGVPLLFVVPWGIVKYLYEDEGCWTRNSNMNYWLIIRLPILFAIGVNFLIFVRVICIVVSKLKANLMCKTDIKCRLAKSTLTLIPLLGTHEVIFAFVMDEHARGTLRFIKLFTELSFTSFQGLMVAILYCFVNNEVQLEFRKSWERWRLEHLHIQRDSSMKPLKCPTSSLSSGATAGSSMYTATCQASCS

SMILES	Potency
Cc1ccc(NC(=O)c2ccc(NC(=O)N3CCSc4nc(C)cc(C)c43)cc2)c(Cl)c1	inactive
O=C(NC(Cc1ccccc1)c1nc2ccccc2[nH]1)c1ccc(Cl)c([N+](=O)[O-])c1 (centres undefined)	inconclusive [inhibitor, single point]
COc1ccc(C[C@H]2CN3C(=NC[C@@H]3Cc3ccc(O)cc3)N2CCNC(=O)c2ccc(C)c(Br)c2)cc1	inconclusive [inhibitor, partial curve, poor fit]
O=C(C1CCCN(c2ncnc3c2nc2n3CCCCC2)C1)N1CCN(c2cccc(Cl)c2)CC1 (centres undefined)	inconclusive [inhibitor, partial curve, poor fit]
O=C(N/C(=C/c1ccc(Br)cc1)C(=O)N1CCOCC1)c1ccc(Br)o1	inactive
CC(Sc1ccc(Cl)cc1)C(=O)NNC(=O)c1ccccc1O (centres undefined)	inconclusive [inhibitor, partial curve, poor fit]
COc1ccc(NC(=O)N(C)[C@H]2C[C@H]3c4[nH]c5ccc(-c6ccc7c(c6)OCO7)cc5c4CCN3C[C@H]2[C@H](C)O)cc1	inconclusive [inhibitor, full curve, poor fit]
CCOC(=O)C1=C(C)N(C)C(C)=C(C(=O)OCC)C1c1ccsc1	inconclusive [inhibitor, partial curve, poor fit]
CCc1ccc(C(=O)NNc2ccc(F)cc2)cc1	inconclusive [inhibitor, full curve, poor fit]
CSCCC(NC(=O)c1ccc(Cl)cc1Cl)C(=O)N1CCCCCCC1 (centres undefined)	inconclusive [inhibitor, partial curve, poor fit]
CCCCn1c(N)c(N(Cc2ccccc2OC)C(=O)COc2ccc(F)cc2Cl)c(=O)[nH]c1=O	inconclusive [inhibitor, single point]
CC1CC(C)CN(C(=O)COC(=O)C2CCN(S(=O)(=O)c3c(Cl)cccc3Cl)CC2)C1 (centres undefined)	inconclusive [inhibitor, single point]
CCc1ccc(C(=O)NNc2cc(Cl)ccc2Cl)cc1	inconclusive [inhibitor, full curve, poor fit]
CCN(CC)CCn1c2c(c(SCC(=O)Nc3nc4ccccc4s3)nc1=O)CCC2	inconclusive [inhibitor, partial curve]
O=C(c1ccccc1Br)N1CCN(Cc2ccc3c(c2)OCO3)CC1	inconclusive [inhibitor, single point]
Cc1ccc(C)c(SCC(=O)NCc2ccco2)c1	inconclusive [inhibitor, single point]
CC1(C)OC(=O)C2=C(C[C@@H](C3CCCCC3)O[C@@H]2c2ccc(Cl)cc2)O1	inconclusive [inhibitor, partial curve, poor fit]
O=C1CN(C(=O)CN2CCCC2)C(c2ccccc2)c2cc(Br)ccc2N1 (centres undefined)	inconclusive [inhibitor, partial curve]
CCCOc1cccc(NC(=O)c2cc(C)oc2C)c1	inconclusive [inhibitor, single point]
Cc1ccc(-n2c(=O)[nH]c3c(C(N)=O)nc(-c4ccc(C)o4)nc32)cc1	inconclusive [inhibitor, partial curve]

SMILES	Potency
C[C@H]1CCC/C=C/[C@@H]2C[C@H](O)C[C@H]2[C@H](O)[C@H](S(=O)c2ccc(O)cc2)CC(=O)O1 (some centres undefined)	inactive
COc1ccc(NC(=O)CSc2nc3ccccc3c(=O)n2CCCN2CCCCC2)c(OC)c1	inconclusive [inhibitor, single point]
Cc1cccc(NC(=O)C(=O)NCC2CCCO2)c1 (centres undefined)	inactive
O=C(C1CCCCC1)N1CCC(CO)(Cc2ccccc2Cl)CC1	inconclusive [inhibitor, single point]
Cc1ccc(/C=N/N2CCN(Cc3cccc4ccccc34)CC2)o1	inconclusive [inhibitor, partial curve, poor fit]
CC(/C=N/NC(=O)Cn1nccc1C)=C\c1ccc(C(C)C)cc1	active: 11.2 µM
CCOc1ccc(-n2c(=S)sc3c(=O)[nH]c(SCC(=O)N4CCC(C)CC4)nc32)cc1	inconclusive [inhibitor, partial curve]
Cc1ccc(NC(=O)c2ccc(Nc3ccccc3F)nc2)cc1	inconclusive [inhibitor, full curve, poor fit]
COc1ccccc1CC(=O)N(CCC1=CCCCC1)c1c(N)n(Cc2ccccc2)c(=O)[nH]c1=O	inactive
OCC1(CCc2ccccc2)CCCN(CCCC(F)(F)F)C1 (centres undefined)	inconclusive [inhibitor, full curve, poor fit]
CC(Nc1nc(-c2cccnc2)nc2ccccc12)c1ccccc1 (centres undefined)	inconclusive [inhibitor, partial curve, poor fit]
CCN(CC)C1=CC(=O)OC12CCCCC2	inactive
O=C(C1=C[C@H](c2ccc(Br)cc2)C[C@H](OCCCCO)O1)N1CCN(Cc2ccccc2)CC1	inconclusive [inhibitor, single point]
Cc1ccc(NC(=O)c2ccc(NCCN)c([N+](=O)[O-])c2)cc1Cl	inconclusive [inhibitor, partial curve, poor fit]
CC(=O)NC(c1ccc(C)cc1)c1cc([N+](=O)[O-])c2cccnc2c1O (centres undefined)	inconclusive [inhibitor, partial curve, poor fit]
Cc1ccc(CSC2=NCCN2S(=O)(=O)c2ccccc2)cc1	inconclusive [inhibitor, single point]
Cc1cccc(NC(=O)c2nc[nH]c2C(=O)N[C@@H](CCCCNC(=O)OC(C)(C)C)C(=O)OC(C)(C)C)c1	inconclusive [inhibitor, partial curve, poor fit]
c1ccc(-c2nnc(C(c3ccccc3)c3ccccc3)o2)cc1	inconclusive [inhibitor, partial curve, poor fit]
COc1cccc(N(CC(=O)NCCSc2ccc(Cl)cc2)S(C)(=O)=O)c1	inconclusive [inhibitor, single point]
COc1cccc(C2c3cc4c(cc3OC(NNC(N)=O)C2C)OCO4)c1O (centres undefined)	inconclusive [inhibitor, full curve, poor fit]

SMILES	Potency
Cc1ccc(Cl)cc1NC(=O)COC(=O)CC1CCCCC1	inconclusive [inhibitor, single point]
Cc1cc(=O)oc2c(C)c(OCC(=O)N3CCN(c4ccc(F)cc4)CC3)ccc12	inconclusive [inhibitor, single point]
C=CCn1c(=O)c(C(=O)NCCN(CC)CC)c(O)c2ccccc21	inconclusive [inhibitor, partial curve, poor fit]
CCO[C@H]1OC(C(=O)N2CCN(Cc3ccccc3)CC2)=C[C@@H](C2CCCCC2)[C@@H]1CCCO	inconclusive [inhibitor, partial curve, poor fit]
C=CCc1cc(Cl)ccc1OCCOCCN(C)C	active: 7.08 µM
Cc1cc(OCCCCNC(C)C)cc(C(C)C)c1	inconclusive [inhibitor, partial curve, poor fit]
O=C(Nc1nc2cc3c(cc2s1)OCO3)C1CCCCC1	inconclusive [inhibitor, single point]
CCOc1ccc(Nc2nc3cc(S(=O)(=O)CC)ccc3o2)cc1	inconclusive [inhibitor, single point]
COc1ccccc1CN(Cc1ccco1)c1cnc(S(C)(=O)=O)nc1C(=O)Nc1cc(C)ccc1C	inconclusive [inhibitor, single point]
CCOC(=O)N1CCN(S(=O)(=O)c2ccc(C(=O)Nc3sc4c(c3C(=O)OC)CCN(C)C4)cc2)CC1	inconclusive [inhibitor, single point]
O=C(NCCc1csc2nc(-c3ccc(F)cc3)nn12)c1cccc(C(F)(F)F)c1	inconclusive [inhibitor, single point]
CCOc1ccccc1CNC(=O)c1cnc2sc(N3CCCCCC3)nn2c1=O	inconclusive [inhibitor, single point]
CC(C)C(C=Cc1ccccc1)=NNS(=O)(=O)c1ccccc1	inconclusive [inhibitor, single point]
Cc1cc(NC(=O)CCN2C(=O)c3ccccc3C2=O)no1	inactive
COc1ccccc1CN(C)CC(=O)Nc1cccc2ccccc12	inconclusive [inhibitor, single point]
O=C(Cn1cc(SCc2cccc(Cl)c2)c2ccccc21)N1CCCCCC1	inconclusive [inhibitor, partial curve, poor fit]
COc1ccc(-c2cn(Cc3ccc(C(=O)NCc4ccc(C)cc4)cc3)c(C(C)N)n2)cc1 (centres undefined)	inconclusive [inhibitor, single point]
COc1ccccc1N1CCN(S(=O)(=O)CCNC(=O)/C=C/c2ccc3c(c2)OCO3)CC1	inconclusive [inhibitor, single point]
CCCCC(C(=O)NC1CCCC1)N(Cc1ccccc1)C(=O)c1snc(C(N)=O)c1N (centres undefined)	inconclusive [inhibitor, single point]
